Results from the antibiotic and cytotoxicity screens of Wong et al. (2023).
The list shows a part of the results.

What follows are molecules tested on HepG2 (assay: cytotoxicity call (relative viability < 0.9)). Conditions: 10 µM.

Row | SMILES | cytotoxicity call
1 | Cc1noc(C)c1NC(=O)N(C)C[C@@H]1Oc2ccc(NC(=O)CCN3CCOCC3)cc2CC(=O)N([C@@H](C)CO)C[C@H]1C | inactive
2 | C[C@H](CO)N1C[C@H](C)[C@@H](CN(C)Cc2ccncc2)OCCCC[C@H](C)Oc2ccc(NC(=O)Cc3ccccc3)cc2C1=O | inactive
3 | O=c1cc[nH]c(=O)[nH]1 | inactive
4 | COc1ccc(C#Cc2cnc3c(c2)C(=O)N([C@H](C)CO)C[C@H](C)[C@H](CN(C)C(=O)NC(C)C)O3)cc1OC | inactive
5 | C[C@@H]1CN([C@H](C)CO)C(=O)c2cc(NC(=O)CCC(F)(F)F)ccc2O[C@@H]1CN(C)Cc1ccc(-c2ccccc2)cc1 | inactive
6 | CN(C)Cc1cn(CC[C@H]2CC[C@H](N)[C@@H](CO)O2)nn1 | inactive
7 | C[C@@H]1CN([C@@H](C)CO)C(=O)Cc2cc(NS(=O)(=O)c3cn(C)cn3)ccc2O[C@H]1CN(C)Cc1ccc2c(c1)OCO2 | inactive
8 | C[C@@H]1CCCCO[C@@H](CN(C)Cc2ccccc2)[C@H](C)CN([C@@H](C)CO)C(=O)c2cc(NC(=O)c3ccncc3)ccc2O1 | inactive
9 | C[C@H]1CN([C@@H](C)CO)C(=O)c2cc(NC(=O)Nc3ccc4c(c3)OCO4)ccc2O[C@@H]1CN(C)C(=O)Nc1ccc(C(F)(F)F)cc1 | inactive
10 | COc1ccc(S(=O)(=O)Nc2ccc3c(c2)CC(=O)N([C@@H](C)CO)C[C@H](C)[C@H](CN(C)S(=O)(=O)c2ccc(OC)cc2)O3)cc1 | inactive
